The record followed here is PubChem BioAssay (NCI).

Among the test systems are RPMI-8226 leukemia; MOLT-4 leukemia; SR leukemia; KM12 colon; OVCAR-3 ovarian; ACHN renal; NCI-H460 lung; SK-MEL-28 melanoma; PC-3 prostate; 786-0 renal; U251 CNS; TK-10 renal; SK-OV-3 ovarian; SNB-75 CNS; OVCAR-4 ovarian; EKVX NSCLC; HOP-62 NSCLC; T-47D breast; HOP-92 NSCLC; SNB-19 CNS; RXF 393 renal; SF-295 CNS; HS 578T breast; MCF7 breast.
What all share (test): NCI anticancer screen, dose series, 48 h

The structures appear in SMILES notation.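 Grown in 96-well plates, cells were treated for 48 hours with each compound at five concentrations. Insufficient inhibition: endpoint recorded as highest concentration tested. GI50 is the concentration that inhibits growth by half.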 Some entries of the source have several records that differ or are many. They are shown here; other results are not. There may be further records. For part of these data: Values given together are repeated measurements (runs, samples, wells, individuals or studies). Records carry a tag for their origin. A, B and so on number the origins entry by entry.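 Definition used: TGI = concentration required for complete inhibition of growth.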 For part of these data: The tests behind the records often covered other concentration ranges, not given here; a value can be the end of its range. Bounds are passed on as bounds.

For the molecule `[N-]=[N+]=CC(=O)CCC(N)C(=O)O` (stereo not given), the TGI in the assay on RPMI-8226 leukemia is 19.6 µM and > 250 µM; in the assay on MOLT-4 leukemia, 993 nM and 109 µM.

As for `C[C@@H]1C[C@@H]([C@H](O)CC2CC(=O)NC(=O)C2)C(=O)[C@@H](C)C1`, the TGI was 396 nM [sample A] and 8.39 µM [sample B] in the assay with SR leukemia; 2.06 µM [sample A] and > 21.4 µM [sample B] in the assay with KM12 colon; 1.73 µM [sample A] and > 21.2 µM [sample B] with OVCAR-3 ovarian; 627 nM [sample A] and 14 µM [sample B] with ACHN renal; > 100 µM [sample A] and 8.99 µM [sample B] in the assay with NCI-H460 lung.

As to `OCC(O)C(O)C(O)C(/C=N\Nc1ncnc2c(Br)cc(Br)cc12)=N/Nc1ncnc2c(Br)cc(Br)cc12` (stereo not given), the GI50 in the assay with SK-MEL-28 melanoma is 1.83 µM [sample A, 1 test] and > 100 µM [sample B, 1 test]; with PC-3 prostate, 3.98 µM [sample A, 1 test] and > 100 µM [sample B, 1 test]; in the assay with TK-10 renal, 4.63 µM [sample A, 1 test] and > 100 µM [sample B, 1 test]; in the assay with SK-OV-3 ovarian, 2.96 µM [sample A, 1 test] and > 100 µM [sample B, 1 test]; in the assay with KM12 colon, 8.84 µM [sample A, 1 test] and > 100 µM [sample B, 1 test]; in the assay on SNB-75 CNS it was 2.32 µM [sample A, 1 test] and > 100 µM [sample B, 1 test]. Also, the GI50 in the assay with HOP-92 NSCLC was 2.54 µM [sample A, 1 test] and > 100 µM [sample B, 1 test]; with SNB-19 CNS, 2.81 µM [sample A, 1 test] and > 100 µM [sample B, 1 test]; in the assay with RXF 393 renal it was 2.28 µM [sample A, 1 test] and > 100 µM [sample B, 1 test]; in the assay on HS 578T breast it was 4.3 µM [sample A, 1 test] and > 100 µM [sample B, 1 test]. Besides, the TGI with SK-MEL-28 melanoma was 6.12 µM [sample A, 1 test] and > 100 µM [sample B, 1 test]; in the assay with 786-0 renal, 9.51 µM [sample A, 1 test] and > 100 µM [sample B, 1 test]; with U251 CNS it was 6.12 µM [sample A] and > 100 µM [sample B]; in the assay with SNB-75 CNS, 4.88 µM [sample A, 1 test] and > 100 µM [sample B, 1 test]; in the assay with OVCAR-4 ovarian, 7.29 µM [sample A] and > 100 µM [sample B]; with EKVX NSCLC, 4.69 µM [sample A, 1 test] and > 100 µM [sample B, 1 test]. In addition, the TGI in the assay with HOP-62 NSCLC was 4.87 µM [sample A, 1 test] and > 100 µM [sample B, 1 test]; with T-47D breast it was 9.86 µM [sample A] and > 100 µM [sample B]; in the assay with HOP-92 NSCLC, 7.37 µM [sample A, 1 test] and > 100 µM [sample B, 1 test]; with SNB-19 CNS it was 8.91 µM [sample A, 1 test] and > 100 µM [sample B, 1 test]; in the assay with RXF 393 renal, 5.32 µM [sample A, 1 test] and > 100 µM [sample B, 1 test]; with SF-295 CNS, 6.88 µM [sample A, 1 test] and > 100 µM [sample B, 1 test].

As to `COC(=O)C1OC(O[C@H]2CC[C@]3(C)[C@H]4CC=C5[C@@H]6CC(C)(C)CC[C@]6(C(=O)OC6OCC(O)C(O)C6OC6OC(C)C(OC7OCC(O)C(O)C7O)C(O)C6O)[C@H](O)C[C@@]5(C)[C@]4(C)CC[C@H]3C2(C)C)C(O)C(O)C1O` (stereo not given in full), the GI50 with MCF7 breast is 2.68 µM [sample A, mean of 2 tests] and 188 nM [sample B, mean of 2 tests].
